A lower IC50 marks a more sensitive line; a limit (>, <) means that the fit lies beyond the doses tested. For AUC the same curve is integrated over the 256-fold range of doses and scaled to a fraction; it is 1 without any effect and falls as sensitivity rises. For some of these results: Any top dose called inferred comes from the curve model; the source does not state it. For some of these results: An entry number marks a drug with two screens in the source, which often give different values.
How the values were obtained:
Experiment in all cases: Viability of human cancer cell lines after 72 h of drug (GDSC screen)
Thapsigargin = compound: C/C=C(/C)C(=O)O[C@H]1C(C)=C2[C@H]([C@@H]1OC(=O)CCCCCCC)[C@@](C)(OC(C)=O)C[C@H](OC(=O)CCC)[C@@]1(O)[C@H]2OC(=O)[C@@]1(C)O [Thapsigargin]; details: top dose 0.512 µM; top dose inferred
Procedure: (§1)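 Human cancer cell lines in 384-well plates, medium with 10% serum, drug for 72 h over a 256-fold dose range (nine 2-fold or five 4-fold steps up to the top dose). Adherent lines were fixed and stained with the nucleic acid dye Syto60, suspension lines read with resazurin; signal relative to control wells, capped at 0 and 100%. One two-parameter sigmoid per drug and line, fitted in a mixed model over all curves with the slope shared within a line.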

QL-X-138 = compound: C=CC(=O)Nc1cc(-n2c(=O)ccc3cnc4ccc(-c5cn[nH]c5)cc4c32)ccc1C [QL-X-138]; details: top dose 10.24 µM; top dose inferred
Procedure: as §1

GSK269962A = compound: CCn1c(-c2nonc2N)nc2cnc(Oc3cccc(NC(=O)c4ccc(OCCN5CCOCC5)cc4)c3)cc21 [GSK269962A]; details: top dose inferred
Procedure: as §1

MPS-1-IN-1 = compound: COc1cc(N2CCC(O)CC2)ccc1Nc1cc(Nc2ccccc2S(=O)(=O)C(C)C)c2cc[nH]c2n1 [MPS-1-IN-1]; details: top dose 20 µM; top dose inferred
Procedure: as §1

(5Z)-7-Oxozeaenol = compound: COc1cc(O)c2c(c1)/C=C/C[C@H](O)[C@H](O)C(=O)/C=C\C[C@H](C)OC2=O [(5Z)-7-Oxozeaenol]; details: top dose 10 µM; top dose inferred
Procedure: as §1

CP466722 = compound: COc1cc2ncnc(-n3nc(-c4ccccn4)nc3N)c2cc1OC [CP466722]; details: top dose 16 µM; top dose inferred
Procedure: as §1

Zibotentan = compound: COc1nc(C)cnc1NS(=O)(=O)c1cccnc1-c1ccc(-c2nnco2)cc1 [Zibotentan]; details: top dose 20 µM; top dose inferred
Procedure: as §1

ABT-888 = compound: C[C@]1(c2nc3c(C(N)=O)cccc3[nH]2)CCCN1 [ABT-888]; details: top dose 5 µM; top dose inferred
Procedure: as §1

CMK = compound: Cc1ccc(-c2c(C(=O)CCl)n(CCCO)c3ncnc(N)c23)cc1 [CMK]; details: top dose 4 µM; top dose inferred
Procedure: as §1

ABT-869 = compound: Cc1ccc(F)c(NC(=O)Nc2ccc(-c3cccc4[nH]nc(N)c34)cc2)c1 [ABT-869]; details: top dose 1.024 µM; top dose inferred
Procedure: as §1

CHIR-99021 = compound: Cc1cnc(-c2cnc(NCCNc3ccc(C#N)cn3)nc2-c2ccc(Cl)cc2Cl)[nH]1 [CHIR-99021]
Procedure: as §1

Cytarabine = compound: Nc1ccn([C@@H]2O[C@H](CO)[C@@H](O)[C@@H]2O)c(=O)n1 [Cytarabine]; details: top dose 2 µM
Procedure: as §1

KU-55933 = compound: O=c1cc(-c2cccc3c2Sc2ccccc2S3)oc(N2CCOCC2)c1 [KU-55933]; details: top dose 10 µM
Procedure: as §1

[1] = top dose 2.5 µM, screen: GDSC drug entry 127
[2] = top dose 2.56 µM, screen: GDSC drug entry 154
[3] = top dose 10 µM, screen: GDSC drug entry 1241, top dose inferred
[4] = top dose 5 µM, screen: GDSC drug entry 1192

SR (lymphoid neoplasm, suspension)
AUC (Thapsigargin): 0.931
IC50 (Thapsigargin): > 512 nM
AUC (QL-X-138): 0.28
IC50 (QL-X-138): 164 nM
AUC (GSK269962A; [1]): 0.181
IC50 (GSK269962A; [1]): 19.7 nM
AUC (MPS-1-IN-1): 0.266
IC50 (MPS-1-IN-1): 293 nM
AUC ((5Z)-7-Oxozeaenol): 0.544
IC50 ((5Z)-7-Oxozeaenol): 812 nM
AUC (CP466722): 0.606
IC50 (CP466722): 1890 nM
AUC (Zibotentan): 0.962
IC50 (Zibotentan): > 20000 nM
AUC (ABT-888): 0.986
IC50 (ABT-888): > 5000 nM
AUC (CMK): 0.916
IC50 (CMK): > 4000 nM
AUC (ABT-869): 0.927
IC50 (ABT-869): > 1020 nM
AUC (CHIR-99021; [2]): 0.959
IC50 (CHIR-99021; [2]): > 2560 nM
AUC (CHIR-99021; [3]): 0.976
IC50 (CHIR-99021; [3]): > 10000 nM
AUC (Cytarabine): 0.779
IC50 (Cytarabine): 733 nM
AUC (KU-55933): 0.894
IC50 (KU-55933): 9940 nM

ST486 (Burkitt lymphoma, suspension)
AUC (Thapsigargin): 0.108
IC50 (Thapsigargin): 2.13 nM
AUC (QL-X-138): 0.322
IC50 (QL-X-138): 218 nM
AUC (GSK269962A; [1]): 0.924
IC50 (GSK269962A; [1]): > 2500 nM
AUC (GSK269962A; [4]): 0.789
IC50 (GSK269962A; [4]): 1940 nM
AUC (MPS-1-IN-1): 0.719
IC50 (MPS-1-IN-1): 4780 nM
AUC ((5Z)-7-Oxozeaenol): 0.711
IC50 ((5Z)-7-Oxozeaenol): 2260 nM
AUC (CP466722): 0.54
IC50 (CP466722): 1270 nM
AUC (Zibotentan): 0.96
IC50 (Zibotentan): > 20000 nM
AUC (ABT-888): 0.988
IC50 (ABT-888): > 5000 nM
AUC (CMK): 0.849
IC50 (CMK): 2490 nM
AUC (ABT-869): 0.989
IC50 (ABT-869): > 1020 nM
AUC (CHIR-99021; [2]): 0.883
IC50 (CHIR-99021; [2]): 2200 nM
AUC (CHIR-99021; [3]): 0.864
IC50 (CHIR-99021; [3]): 7110 nM
AUC (Cytarabine): 0.92
IC50 (Cytarabine): > 2000 nM
AUC (KU-55933): 0.959
IC50 (KU-55933): > 10000 nM
